Results reported in ChEMBL document CHEMBL4888484, “Replenishing the malaria drug discovery pipeline: Screening and hit evaluation of the MMV Hit Generation Library 1 (HGL1) against asexual blood stage Plasmodium falciparum ,using a nano luciferase reporter read-out” (2022).
About 540 (0.36%) of roughly 150,000 compounds showed an effect of 50% or more. Some of the results follow.

What follows are compounds tested on Plasmodium falciparum (assay: Primary screen in NF54 nanoGlo assay, in single point, at 2uM, 72h; a lower Z score goes with more inhibition). Settings: timepoint 72 hour.
Type: functional, Erythrocyte

SMILES	% Inhibition [%]	Z score
O=C(NCc1nnc2ccccn12)c1cccc(=O)n1CCOc1ccccc1Cl	34	-3.8
CC1(C2CCCN(Cc3ccc4ccccc4n3)C2)NC(=O)NC1=O (configuration not stated)	-1	0.12
Cc1nnc([C@H]2CCCN(Cc3nccc4c3CCCC4)C2)o1	-4	0.51
Cc1cccc(Cn2c([C@@H]3CCCCN3C)n[nH]c2=O)c1	-14	1.31
Cc1ncc(Cl)c(C(=O)N2CCC(c3nnc(CN4CCCC4)n3C)CC2)n1	-6	1.12
O=C1CC[C@@H](CN(Cc2ccccn2)C(=O)CN2CCCCCC2)N1	-9	1.9
CCS(=O)(=O)c1cccc(CC(=O)N(C)c2cccc(C#N)c2)c1	-12	1.21
CCCCC[C@H](NC(=O)C1CCCC1)C(=O)O	-7	1.16
CC(=O)Nc1ccc(C(C)=O)cc1OCC(=O)Nc1ccc2c(c1)OCCCO2	-13	1.75
CC1CCN(CC(=O)N2c3ccccc3[C@](C)(c3ccc(Cl)cc3)CC2(C)C)CC1	-4	0.5
CCc1ccc(-c2cc3n(n2)C[C@@](C)(C(=O)NC2CCCCC2)N(c2cccc(C)c2C)C3=O)cc1	-2	0.32
CC(C)C[C@@H]1N=C(O)N(CCc2c[nH]c3ccccc23)C1=O	2	-0.19
Cc1cc(OCC(=O)N2CCOc3c(F)ccc(F)c32)no1	-5	0.75
O=C(NCCc1ccc(Cl)cc1)c1csc(NS(=O)(=O)c2cccs2)n1	-9	1.73
CCn1c[n+](CC(=O)c2ccccc2)cn1	-5	0.85
CCn1c([C@H](C)NCc2nnc(C(=O)NCc3ccc(C)cc3)s2)nc2ccccc21	-8	0.95
CN1CC[C@@H](c2nc(-c3ccc(OCC(F)F)cn3)no2)S1(=O)=O	-5	0.46
CCS(=O)(=O)N1CC(CNC(=O)c2cccs2)C1	-12	1.33
c1ccc(-c2csc(NCc3ccon3)n2)cc1	1	-0.21
CN1C(=O)[C@H](O)[C@H](C(=O)NCCCCO)[C@H]1c1ccccc1	-9	1.21
CCc1nc(CS(=O)(=O)C[C@H]2CCCO2)n[nH]1	-5	0.68
Cc1nnc(Cn2cc(Cl)cn2)n1C	-13	1.6

SMILES	% Inhibition [%]	Z score
Cc1cc(NC(=O)[C@H]2OCCO[C@H]2C)nn1C1CCCCC1	-2	0.22
Cc1cc(CNC(=O)C2CC23CCCN(C(=O)OC(C)(C)C)C3)no1 (configuration not stated)	-9	1.73
Cc1onc(C(=O)NC2CCCC2)c1C	-31	3.69
Cc1ccc(C2OCCCC2CNc2nccnc2C#N)cc1 (configuration not stated)	3	-0.53
C[C@@]1(C(=O)O)CCCN1Cc1cc(C#CCO)cs1	0	-0.05
O[C@H]1CCN(Cc2ccc(OCc3ccccc3F)nc2)C1	3	-0.24
CCOC(=O)NC(c1ccccc1F)C1CCCCC1=O (configuration not stated)	40	-5.1
O=S(=O)(Nc1ccccc1-c1nc2ccccc2s1)c1ccc(Cl)cc1	-17	2.13
COCCc1nnc2n1CC1CCC(C2)N1C(=O)CCc1ccccc1 (configuration not stated)	-6	0.81
COc1cc(C(=O)NCc2cncn2CC(C)C)ccn1	-14	1.83
CCc1onc(C)c1[C@@H]1CCCN1C(=O)Cn1nc(C(F)(F)F)c2c1CCCC2	-4	0.54
COc1ccc2c(c1)[C@](O)(CNC(=O)c1csnc1C)CCC2	-6	0.5
C#CCNC(=O)CN1C=NS(=O)(=O)c2ccccc21	3	-0.35
CC(C)CC[C@@H](CCNCc1cccnc1)c1ccco1	-3	0.43
CC1Oc2ccc(NC(C)c3nc(C(C)C)no3)cc2NC1=O (configuration not stated)	7	-0.66
CCc1nn2c(S(=O)(=O)N3CCCCCC3)c(C)nc2s1	-14	1.76
Cc1ccc(CNC(=O)C2(C#N)CCCC2)c(N(C)C)c1	7	-0.74
Cc1ccc(N(C)c2nc(-c3ccc(F)cc3)ncc2C(=O)N2CCCCC2)cc1	8	-1
Cn1c(CO)nnc1[C@H]1C[C@@H](NC(=O)c2nc3ccc(Cl)cn3c2F)C1	-18	2.8
COc1ccccc1-n1nc(CN(C(=O)C2CCC2)C2CC2)c2c1CCN(Cc1ccccc1F)C2	10	-1.3
CCCCOc1cn(C(C)(C)C)nc1C(C)=O	-14	1.76
O=C(c1cn(CCCc2ccccc2)nn1)N1CCc2c(Cl)cccc2C1	-13	1.91

SMILES	% Inhibition [%]	Z score
COc1cccc2c(=O)n([C@H]3CN(C(C)C)C[C@@H]3OC)cnc12	-20	1.78
CC1(C)[C@H](Cc2cc(CO)on2)C[C@@H]1NCc1ccccc1	-7	1.02
CC[C@@H](C(C)C)S(=O)(=O)NC(=O)C1CCC(F)(F)CC1	-12	1.61
COc1ccc(-c2noc([C@H](C)O)c2C(=O)NC2CCCCC2)cc1OC	-9	1.11
Nc1ccccc1S(=O)(=O)N1CCC(N2CCc3ccccc3C2)CC1	-7	0.7
CN1CC[C@](C)(CNS(=O)(=O)CC2CCCC2)C1	-1	0.15
Cn1ccnc1C1CNCCN1CC(O)COCc1ccccc1 (configuration not stated)	-4	0.48
COCCN(CC1CN(CC(O)COC)CCO1)C(=O)c1ccccc1 (configuration not stated)	-2	0.31
Cn1cc(S(=O)(=O)Nc2cccc3c2OC(C)(C)CC3)cn1	-13	1.73
CC(C)c1nnsc1C(=O)N1CCC[C@H]1c1ccc(CN(C)C)cc1	-4	0.7
CCC[C@H](NC(=O)c1ccc2c(c1)NC(=O)CCN2C)c1nnn[nH]1	-4	0.81
CCCc1nnsc1C(=O)Nc1cc2nc(-c3ccccc3)oc2nc1C	-14	1.75
CC(C)Cn1ncc(NC(=O)N2CCC(=O)[C@@H](C)C2)c1C1CC1	-1	0.13
CCOc1ccccc1N1CCN(c2ncnc3[nH]ccc23)CC1	12	-1.47
CC(C)[C@H]1CCO[C@H]1C(=O)Nc1cc(C2CCCC2)nn1C	1	-0.18
Cn1c(CN2CC[C@H](C(N)=O)C2)cc2ccccc21	-5	0.48
Cc1nn(C)c(C)c1-c1cc(C(=O)NCCc2c[nH]cn2)n(C)n1	-3	0.65
Cc1ccc(Cn2c(=O)c(C(=O)NC[C@H]3CCCO3)nn(-c3ccc(F)cc3)c2=O)cc1	-11	1.92
CCC1CC(C(=O)N2CCC(C)(C(N)=O)C2)CC(=O)N1 (configuration not stated)	-5	0.61
O=C(c1ccncc1Cl)N(c1ccc(F)cn1)C1CCOCC1	-12	1.56
Nc1nccnc1C(=O)NC1CCCC1	-16	2.23
Cn1ccnc1-c1c(-c2ccccc2)ncn1CC(=O)N1CCNCC1	-9	1.78

SMILES	% Inhibition [%]	Z score
C#CCNC(=O)N1CCC(C2(C)OCCO2)CC1	-9	1.58
CCCS(=O)(=O)NC1CCN(Cc2ncc(-c3ccccc3)s2)CC1	-5	0.61
C[C@@H]1CNCCN1S(=O)(=O)c1ccccc1	-7	0.97
COc1ccc(OC)c([C@H](C)NC(=O)c2ccc(CN3CCOCC3)cc2)c1	-9	1.7
CCCS(=O)(=O)N[C@@H](C)c1nc(C)c[nH]1	11	-1.47
O=C(NCc1ccccc1)c1[nH]cnc1C(=O)N1CCCCC1	11	-1.23
CCn1ccc(C(=O)N2CC[C@H]3C(=O)N(Cc4cccc(C)c4)CC(=O)N3CC2)n1	-10	1.36
C[C@@H](CCNc1ccc(C#N)nn1)NC(=O)OC(C)(C)C	-7	1.31
CC(C)(c1nc(C2(c3ccncc3)CCC2)no1)S(=O)(=O)C1CC1	-4	0.5
Cn1nccc1-c1cccc(-c2nc(N3CCCCC3)n(C)n2)c1	-4	0.64
COc1ncccc1C(=O)NCc1cccnc1-n1cnc2ccccc21	1	-0.24
CC(C)n1ccnc1CNC(=O)Cc1cccnc1	0	0.07
Cc1ccc(-c2ocnc2C(=O)Nc2nc3ccccc3s2)o1	-21	2.05
CCc1nc(C)c(-c2nc3ccc(C(=O)O)cc3[nH]2)[nH]1	-6	0.84
Cc1nn(C(C)(C)C)c2nc(C3CC3)cc(C(=O)N(C)Cc3cccc(C#N)c3)c12	-7	1.44
Cc1cccc(-c2ncc(C(=O)N(C)Cc3ccccc3CN(C)C)c(O)n2)c1	8	-0.93
Cc1cc(C)cc(OCC(=O)N(Cc2ccc(F)cc2)[C@H]2CCS(=O)(=O)C2)c1	-7	0.6
CCc1nc2ccccc2n1[C@@H](CC)C(=O)NCc1c(C)n[nH]c1C	3	-0.5
Cc1noc(C)c1S(=O)(=O)NC[C@@H](c1cccn1C)N(C)C	-11	1.62
CC(C)Cc1ccc(CN2CCCC[C@H](NS(=O)(=O)C3CC3)C2)s1	3	-0.45
